Experimental data as given in paper PMC10668032.
The list shows a part of the results. At the low end of the ranking the order means little.

These sequences were tested against SIX1 homeodomain (reference allele) (UniProt Q15475) (assay: universal protein binding microarray). Settings: Universal all-10-mer PBM (8x60K, AMADID 030236), 300 nM GST-tagged protein, Alexa Fluor 488 anti-GST; buffer, salt, pH and temperature not stated; high values mean tight binding; most listed sequences are background and not binding sites; double strand, one strand shown.

Sequence | binding signal [E-score]
GGGCGATA | 0.347
GAGACGCA | 0.139
CTAGTGCC | -0.19
GTTGACCA | -0.19
ATTCCCTA | -0.0192
ATGTGCTC | -0.138
CCCAAGGG | -0.141
GTAGTTTA | -0.0688
AACAACTG | -0.258
ATTGGGTG | 0.262
AGAGTGCT | -0.104
GGCAGTAA | -0.056
CGGACCTA | -0.054
ATACAGTC | 0.163
AGTGTATA | 0.291
CGCAAATC | -0.178
ACGTTCCT | -0.127
GTCGACCA | -0.101
AAACGCCG | -0.206
AGGCTCTA | -0.163
AAGACACG | -0.0172
CTTAAAGA | -0.117
TTACACAA | -0.0113
GTTAGTGA | -0.0842
AAGCCAGC | -0.091

Sequence | binding signal [E-score]
CAGTACCC | -0.0476
ATTTGGAG | -0.0342
ACGACTCA | -0.117
CAACATAA | -0.0681
GGCGACAC | 0.143
CCGGTCAA | -0.098
ATTTCCTC | -0.213
GCGGTAAC | -0.107
GAAGTGAA | -0.237
GCCCCTGA | -0.00066
ATTACAAC | -0.0801
ATGTTAAG | -0.182
AATATAAC | 0.0555
AGGTCACC | -0.274
GGGCTCTA | -0.0508
ATCCCGAA | 0.252
ATTAATCC | 0.316
CGCCCACA | -0.156
AAGTTGGT | -0.0338
TATCTTAA | 0.182
CTTTAGCC | -0.0401
CGTGTTAC | -0.0137
CAGTCCCA | -0.102
ATTCGTGA | -0.0133
GCGGCACA | -0.124

Sequence | binding signal [E-score]
AGTGATTA | 0.0197
AAGGCTAC | -0.147
GCCGCGGC | -0.0384
CATATGCA | 0.0732
AGCTGCAG | -0.0923
ATGCGAGC | -0.0226
CCTCACCG | -0.0626
TCTGTTAA | -0.136
ATTCGCTA | -0.153
CAAAATAG | -0.146
TACGCATA | 0.197
ATGTCAAT | -0.0431
TGGTGAAA | -0.138
CATACTTC | -0.053
CAGTCTCG | -0.151
GCGAATAC | 0.115
AGACACGC | -0.0736
TCGATTAA | 0.0867
CAGGTGCG | -0.109
TGAAGACA | -0.1
CGATTTAC | -0.0792
TACCCATA | 0.222
CACTATCG | 0.211
AGAGACCA | -0.022
AATTATGC | -0.317

Sequence | binding signal [E-score]
GGATTCAA | 0.097
CGCAACGC | -0.34
GATGGCGA | -0.0737
CGCCCGTC | -0.0478
CCCCTGTC | -0.00686
CCGTCTCC | 0.217
GGATTGAA | 0.106
TGCCGTAA | -0.202
AGTCAGAT | 0.155
ACAGGTGG | -0.0589
GCGGAGGA | -0.135
CCACGCAG | -0.0301
AATACACG | 0.124
AAGCGTCC | -0.187
TCCTTACA | 0.0277
CTTCACAC | -0.0185
AATCATTG | -0.136
CGCTACGA | -0.0142
CGTGTCTC | 0.0982
GCCTTCCC | -0.306
GGACCAAC | -0.257
CACTGCTA | -0.0991
AAGAATCG | 0.00046
GGGAGCTA | -0.153
AACATTTA | -0.176

Sequence | binding signal [E-score]
CTCTACAG | 0.0472
CACTGAAG | -0.238
CCCACGAC | -0.0571
ACCCTCCT | 0.0716
AAGAATCT | -0.165
CCCCAGCC | -0.0267
ATTAGCAA | 0.101
CCTGACGA | -0.0776
GAGGGGAA | -0.0367
CTTTACTA | -0.17
ATGCATTC | -0.132
GCTTTAAA | -0.146
GATCGCGC | 0.197
AAGTTATT | -0.193
GTGTTATA | 0.219
CGGTTCCA | -0.133
GAAATACC | 0.185
AGCCGATA | 0.299
CCGAAAGC | -0.184
ATGATCGC | 0.265
ACATCAGT | -0.174
TACGTTAA | -0.0693
TACACGGA | 0.173
AAGACCGG | -0.101
GGCACCTA | -0.086

Sequence | binding signal [E-score]
CTCATGCC | -0.0993
CAGGGGGC | -0.174
ACCCGTAT | 0.391
CCGGGACC | -0.0868
ATCGGCAA | 0.116
CCGCCCCC | -0.0493
CACCTCGC | 0.0316
CAACTGCG | -0.101
CGGTTTCA | 0.152
CCTGGTCA | -0.0651
GTCCCTGA | -0.133
CCTACAGA | -0.0536
TCGCACCA | 0.0105
TAGTCATA | 0.0341
CTCCTCGA | -0.0638
CACAGCGA | 0.0447
ATGACGGA | -0.0239
TCGTTAGA | 0.0288
ACGCAGAA | -0.0863
TTATGGAA | -0.176
CCCTTGAC | -0.077
GGATGGCC | -0.063
ACGTGCCA | -0.0867
ATGGGAGC | -0.0721
AGCTGGAC | -0.0395

Sequence | binding signal [E-score]
CTTTCTAC | -0.0374
ACATCTGC | -0.125
CCAAGGTA | -0.0461
CTAGGGGC | -0.137
CCCATCCC | 0.154
CACGCATG | -0.0875
AAAGAAAC | -0.138
GACAGATA | 0.324
CAAAATGA | -0.077
AGCTGCTG | -0.163
AATATCAA | 0.225
ACTGCCGA | 0.131
CCAGTAGG | -0.123
CCACTCGA | 0.0984
AGCCTCTA | 0.000285
CCGGTATC | 0.465
AAACCGCA | -0.131
GGGCAAAA | -0.0723
AAATATTC | -0.0276
ACGTCCGG | -0.191
GAGCCATC | 0.0213
TATTCTGA | 0.01
